# In the supplement of paper PMC8728848:
# Some of the results follow.
# Columns and labels:
# Assay in all cases: glycan array binding signal (z-score within array); higher = stronger binding
# Conditions in all cases: glycan notation: IUPAC condensed, linker removed
# [1] = target: Gal(b1-4)GlcNAc(b1-3)Gal(b1-4)GlcNAc(b1-2)Man(a1-3)[Gal(b1-4)GlcNAc(b1-3)Gal(b1-4)GlcNAc(b1-2)Man(a1-6)]Man(b1-4)GlcNAc(b1-4)[Fuc(a1-6)]GlcNAc
# Summary of the method: (§1)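 Glycan array data came from 3228 arrays in the Consortium for Functional Glycomics database, and only arrays with an available protein sequence were kept. Glycan names were put into IUPAC-condensed notation, and columns mapping to the same glycan were averaged. The binding signal is a within-array Z-score, averaged across arrays of one protein sequence run at different concentrations or buffers and across linkers. A negative Z-score can be read as non-binding.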
# [2] = target: Gal(b1-4)GlcNAc(b1-3)Gal(b1-4)GlcNAc(b1-2)[Gal(b1-4)GlcNAc(b1-3)Gal(b1-4)GlcNAc(b1-6)]Man(a1-6)[Gal(b1-4)GlcNAc(b1-3)Gal(b1-4)GlcNAc(b1-2)Man(a1-3)]Man(b1-4)GlcNAc(b1-4)GlcNAc
# Summary of the method: as §1
# [3] = target: Gal(b1-4)GlcNAc(b1-3)Gal(b1-4)GlcNAc(b1-2)[Gal(b1-4)GlcNAc(b1-3)Gal(b1-4)GlcNAc(b1-6)]Man(a1-6)[Gal(b1-4)GlcNAc(b1-3)Gal(b1-4)GlcNAc(b1-2)Man(a1-3)]Man(b1-4)GlcNAc(b1-4)[Fuc(a1-6)]GlcNAc
# Summary of the method: as §1
# [4] = target: Gal(b1-4)GlcNAc(b1-3)Gal(b1-4)GlcNAc(b1-3)Gal(b1-4)GlcNAc
# Summary of the method: as §1
# [5] = target: Gal(b1-4)GlcNAc(b1-3)Gal(b1-4)GlcNAc(b1-3)Gal(b1-4)GlcNAc(b1-2)Man(a1-3)[Gal(b1-4)GlcNAc(b1-3)Gal(b1-4)GlcNAc(b1-3)Gal(b1-4)GlcNAc(b1-2)Man(a1-6)]Man(b1-4)GlcNAc(b1-4)GlcNAc
# Summary of the method: as §1
# [6] = target: Gal(b1-4)GlcNAc(b1-3)Gal(b1-4)GlcNAc(b1-3)Gal(b1-4)GlcNAc(b1-2)Man(a1-3)[Gal(b1-4)GlcNAc(b1-3)Gal(b1-4)GlcNAc(b1-3)Gal(b1-4)GlcNAc(b1-2)Man(a1-6)]Man(b1-4)GlcNAc(b1-4)[Fuc(a1-6)]GlcNAc
# Summary of the method: as §1
# [7] = target: Gal(b1-4)GlcNAc(b1-3)Gal(b1-4)GlcNAc(b1-3)Gal(b1-4)GlcNAc(b1-2)[Gal(b1-4)GlcNAc(b1-3)Gal(b1-4)GlcNAc(b1-3)Gal(b1-4)GlcNAc(b1-6)]Man(a1-6)[Gal(b1-4)GlcNAc(b1-3)Gal(b1-4)GlcNAc(b1-3)Gal(b1-4)GlcNAc(b1-2)Man(a1-3)]Man(b1-4)GlcNAc(b1-4)[Fuc(a1-6)]GlcNAc
# Summary of the method: as §1
# [8] = target: Gal(b1-4)GlcNAc(b1-3)Gal(b1-4)GlcNAc(b1-3)Gal(b1-4)GlcNAc(b1-3)Gal(b1-4)GlcNAc(b1-2)Man(a1-3)[Gal(b1-4)GlcNAc(b1-3)Gal(b1-4)GlcNAc(b1-3)Gal(b1-4)GlcNAc(b1-3)Gal(b1-4)GlcNAc(b1-2)Man(a1-6)]Man(b1-4)GlcNAc(b1-4)GlcNAc
# Summary of the method: as §1
# [9] = target: Gal(b1-4)GlcNAc(b1-3)Gal(b1-4)GlcNAc(b1-3)Gal(b1-4)GlcNAc(b1-3)Gal(b1-4)GlcNAc(b1-2)Man(a1-3)[Gal(b1-4)GlcNAc(b1-3)Gal(b1-4)GlcNAc(b1-3)Gal(b1-4)GlcNAc(b1-3)Gal(b1-4)GlcNAc(b1-2)Man(a1-6)]Man(b1-4)GlcNAc(b1-4)[Fuc(a1-6)]GlcNAc
# Summary of the method: as §1
# [10] = target: Gal(b1-4)GlcNAc(b1-3)Gal(b1-4)GlcNAc(b1-3)Gal(b1-4)GlcNAc(b1-3)Gal(b1-4)GlcNAc(b1-2)[Gal(b1-4)GlcNAc(b1-3)Gal(b1-4)GlcNAc(b1-3)Gal(b1-4)GlcNAc(b1-3)Gal(b1-4)GlcNAc(b1-6)]Man(a1-6)[Gal(b1-4)GlcNAc(b1-3)Gal(b1-4)GlcNAc(b1-3)Gal(b1-4)GlcNAc(b1-3)Gal(b1-4)GlcNAc(b1-2)Man(a1-3)]Man(b1-4)GlcNAc(b1-4)[Fuc(a1-6)]GlcNAc
# Summary of the method: as §1
# [11] = target: Gal(b1-4)GlcNAc(b1-3)Gal(b1-4)GlcNAc(b1-3)Gal(b1-4)GlcNAc(b1-3)Gal(b1-4)GlcNAc(b1-3)Gal(b1-4)GlcNAc(b1-2)Man(a1-3)[Gal(b1-4)GlcNAc(b1-3)Gal(b1-4)GlcNAc(b1-3)Gal(b1-4)GlcNAc(b1-3)Gal(b1-4)GlcNAc(b1-3)Gal(b1-4)GlcNAc(b1-2)Man(a1-6)]Man(b1-4)GlcNAc(b1-4)GlcNAc
# Summary of the method: as §1
# [12] = target: Gal(b1-4)GlcNAc(b1-3)Gal(b1-4)GlcNAc(b1-3)Gal(b1-4)GlcNAc(b1-3)Gal(b1-4)GlcNAc(b1-3)Gal(b1-4)GlcNAc(b1-2)Man(a1-3)[Gal(b1-4)GlcNAc(b1-3)Gal(b1-4)GlcNAc(b1-3)Gal(b1-4)GlcNAc(b1-3)Gal(b1-4)GlcNAc(b1-3)Gal(b1-4)GlcNAc(b1-2)Man(a1-6)]Man(b1-4)GlcNAc(b1-4)[Fuc(a1-6)]GlcNAc
# Summary of the method: as §1
# [13] = target: Gal(b1-4)GlcNAc(b1-3)Gal(b1-4)GlcNAc(b1-3)Gal(b1-4)GlcNAc(b1-3)Gal(b1-4)GlcNAc(b1-3)Gal(b1-4)GlcNAc(b1-2)[Gal(b1-4)GlcNAc(b1-3)Gal(b1-4)GlcNAc(b1-3)Gal(b1-4)GlcNAc(b1-3)Gal(b1-4)GlcNAc(b1-3)Gal(b1-4)GlcNAc(b1-6)]Man(a1-6)[Gal(b1-4)GlcNAc(b1-3)Gal(b1-4)GlcNAc(b1-3)Gal(b1-4)GlcNAc(b1-3)Gal(b1-4)GlcNAc(b1-3)Gal(b1-4)GlcNAc(b1-2)Man(a1-3)]Man(b1-4)GlcNAc(b1-4)[Fuc(a1-6)]GlcNAc
# Summary of the method: as §1
# [14] = target: Gal(b1-4)GlcNAc(b1-3)Gal(b1-4)GlcNAc(b1-3)Gal(b1-4)GlcNAc(b1-3)Gal(b1-4)GlcNAc(b1-3)Gal(b1-4)GlcNAc(b1-3)Gal(b1-4)GlcNAc(b1-2)Man(a1-3)[Gal(b1-4)GlcNAc(b1-3)Gal(b1-4)GlcNAc(b1-3)Gal(b1-4)GlcNAc(b1-3)Gal(b1-4)GlcNAc(b1-3)Gal(b1-4)GlcNAc(b1-3)Gal(b1-4)GlcNAc(b1-2)Man(a1-6)]Man(b1-4)GlcNAc(b1-4)GlcNAc
# Summary of the method: as §1
# [15] = target: Gal(b1-4)GlcNAc(b1-3)Gal(b1-4)GlcNAc(b1-3)GalNAc
# Summary of the method: as §1
# [16] = target: Gal(b1-4)GlcNAc(b1-3)Gal(b1-4)GlcNAc(b1-3)[Gal(b1-4)GlcNAc(b1-3)Gal(b1-4)GlcNAc(b1-6)]GalNAc
# Summary of the method: as §1
# [17] = target: Gal(b1-4)GlcNAc(b1-3)Gal(b1-4)GlcNAc(b1-6)[Gal(b1-3)]GalNAc
# Summary of the method: as §1
# [18] = target: Gal(b1-4)GlcNAc(b1-3)Gal(b1-4)[Fuc(a1-3)]GlcNAc(b1-3)Gal(b1-4)[Fuc(a1-3)]GlcNAc
# Summary of the method: as §1
# [19] = target: Gal(b1-4)GlcNAc(b1-3)GalNAc
# Summary of the method: as §1
# [20] = target: Gal(b1-4)GlcNAc(b1-3)[Fuc(a1-3)GlcNAc(b1-6)]Gal(b1-4)Glc
# Summary of the method: as §1
# [21] = target: Gal(b1-4)GlcNAc(b1-3)[Gal(b1-4)GlcNAc(b1-6)]Gal(b1-4)GlcNAc
# Summary of the method: as §1
# [22] = target: Gal(b1-4)GlcNAc(b1-3)[GlcNAc(b1-6)]Gal(b1-4)GlcNAc
# Summary of the method: as §1
# [23] = target: Gal(b1-4)GlcNAc(b1-6)Gal(b1-4)GlcNAc
# Summary of the method: as §1
# [24] = target: Gal(b1-4)GlcNAc(b1-6)GalNAc
# Summary of the method: as §1
# [25] = target: Gal(b1-4)GlcNAc(b1-6)[Gal(b1-3)]GalNAc
# Summary of the method: as §1
# [26] = target: Gal(b1-4)GlcNAc(b1-6)[Gal(b1-4)GlcNAc(b1-3)]GalNAc
# Summary of the method: as §1
# [27] = target: Gal(b1-4)GlcNAc6P
# Summary of the method: as §1
# [28] = target: Gal(b1-6)Gal
# Summary of the method: as §1
# [29] = target: Gal3S(b1-3)GalNAc
# Summary of the method: as §1
# [30] = target: Gal3S(b1-3)GlcNAc
# Summary of the method: as §1
# [31] = target: Gal3S(b1-3)[Fuc(a1-4)]GlcNAc
# Summary of the method: as §1
# [32] = target: Gal3S(b1-4)Glc
# Summary of the method: as §1
# [33] = target: Gal3S(b1-4)Glc6S
# Summary of the method: as §1
# [34] = target: Gal3S(b1-4)GlcNAc
# Summary of the method: as §1
# [35] = target: Gal3S(b1-4)[Fuc(a1-3)]Glc6S
# Summary of the method: as §1
# [36] = target: Gal3S(b1-4)[Fuc(a1-3)]GlcNAc
# Summary of the method: as §1
# [37] = target: Gal3S(b1-4)[Fuc(a1-3)]GlcNAc6S
# Summary of the method: as §1
# [38] = target: Gal3S4S(b1-4)GlcNAc
# Summary of the method: as §1
# [39] = target: Gal3S6S(b1-4)GlcNAc
# Summary of the method: as §1
# [40] = target: Gal3S6S(b1-4)GlcNAc6S
# Summary of the method: as §1
# [41] = target: Gal4S(b1-4)GlcNAc
# Summary of the method: as §1
# [42] = target: Gal4S6S(b1-4)GlcNAc
# Summary of the method: as §1
# [43] = target: Gal6P(b1-4)GlcNAc
# Summary of the method: as §1
# [44] = target: Gal6S(b1-3)GlcNAc
# Summary of the method: as §1
# [45] = target: Gal6S(b1-3)GlcNAc6S
# Summary of the method: as §1
binder,measurement,setting,value
PX9961A-pdi-456-24-456 (Parabacteroides distasonis) (protein) KTSSTQLPTIDAISSVADLTNAVNGVYEQQATEVGSYGAEFTLLADLRSGDFQSISTVNHAGPMYRYQTGKNDEMVYSFYKLFYNSLARLNNVLAAAENLEGADVDILKGELYAMRALYHFDLARVFAKLPSTTDMNDLGIVLSTEVYPTDYIGTRATLQQTYDQILKDIETALPLLSKDKQTGHINYWGALAIRARAYLYLEKNKEALADCKEIIASSPYKLYTRDEYIGAWDKEGTNEAIFEILVTPNYNAQRNSIGYFTHASGYGECAATESFLEELAKHPGDIRTELFAKETDNGYDGTYPQKYKGRDGQIYVNNPKVVRLSEVYLIAAEAALKAGDTSAAAGYMNTLRKNRIENYTDVASITLDDILLERRLELFTEGHTAWDAWRNGKSVNNKFVGEVKPGDYRTIMAIPIGEITVSRGQLIQNPGY,glycan array binding signal (z-score),[1],2.48
same,glycan array binding signal (z-score),[2],0.406
same,glycan array binding signal (z-score),[3],1.81
same,glycan array binding signal (z-score),[4],-0.413
same,glycan array binding signal (z-score),[5],1.46
same,glycan array binding signal (z-score),[6],1.03
same,glycan array binding signal (z-score),[7],2.11
same,glycan array binding signal (z-score),[8],0.035
same,glycan array binding signal (z-score),[9],6.49
same,glycan array binding signal (z-score),[10],0.94
same,glycan array binding signal (z-score),[11],2.59
same,glycan array binding signal (z-score),[12],0.467
same,glycan array binding signal (z-score),[13],1.72
same,glycan array binding signal (z-score),[14],7.59
same,glycan array binding signal (z-score),[15],0.087
same,glycan array binding signal (z-score),[16],0.322
same,glycan array binding signal (z-score),[17],-0.184
same,glycan array binding signal (z-score),[18],-0.001
same,glycan array binding signal (z-score),[19],-0.441
same,glycan array binding signal (z-score),[20],-0.073
same,glycan array binding signal (z-score),[21],-0.263
same,glycan array binding signal (z-score),[22],-0.258
same,glycan array binding signal (z-score),[23],-0.468
same,glycan array binding signal (z-score),[24],0.949
same,glycan array binding signal (z-score),[25],-0.289
same,glycan array binding signal (z-score),[26],0.084
same,glycan array binding signal (z-score),[27],-0.254
same,glycan array binding signal (z-score),[28],-0.515
same,glycan array binding signal (z-score),[29],-0.226
same,glycan array binding signal (z-score),[30],0.194
same,glycan array binding signal (z-score),[31],-0.263
same,glycan array binding signal (z-score),[32],-0.121
same,glycan array binding signal (z-score),[33],-0.351
same,glycan array binding signal (z-score),[34],-0.267
same,glycan array binding signal (z-score),[35],0.884
same,glycan array binding signal (z-score),[36],0.465
same,glycan array binding signal (z-score),[37],-0.124
same,glycan array binding signal (z-score),[38],-0.286
same,glycan array binding signal (z-score),[39],0.104
same,glycan array binding signal (z-score),[40],0.59
same,glycan array binding signal (z-score),[41],-0.117
same,glycan array binding signal (z-score),[42],-0.597
same,glycan array binding signal (z-score),[43],-0.361
same,glycan array binding signal (z-score),[44],-0.097
same,glycan array binding signal (z-score),[45],0.172
